# Source: article PMC6919601, “Identification of Plasmodium dipeptidyl aminopeptidase allosteric inhibitors by high throughput screening” (PLoS ONE, 2019)
# In all, about 110,000 compounds went through this assay and about 230 (0.21%) showed an effect of 50% or more. This is one part of the list.
# Target: DPAP1 (Plasmodium falciparum, UniProt Q8IIJ9)
# Experiment: primary screen, percent inhibition; read by cleavage of a fluorogenic dipeptide substrate; higher = more effect of the substance
# Design: species or system P. falciparum D10 trophozoite lysates; single well
# 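Also: 30 min substrate incubation versus DMSO and 10 µM JCP410 controls.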
# Chain of DPAP1 (Q8IIJ9 whole entry, looked up): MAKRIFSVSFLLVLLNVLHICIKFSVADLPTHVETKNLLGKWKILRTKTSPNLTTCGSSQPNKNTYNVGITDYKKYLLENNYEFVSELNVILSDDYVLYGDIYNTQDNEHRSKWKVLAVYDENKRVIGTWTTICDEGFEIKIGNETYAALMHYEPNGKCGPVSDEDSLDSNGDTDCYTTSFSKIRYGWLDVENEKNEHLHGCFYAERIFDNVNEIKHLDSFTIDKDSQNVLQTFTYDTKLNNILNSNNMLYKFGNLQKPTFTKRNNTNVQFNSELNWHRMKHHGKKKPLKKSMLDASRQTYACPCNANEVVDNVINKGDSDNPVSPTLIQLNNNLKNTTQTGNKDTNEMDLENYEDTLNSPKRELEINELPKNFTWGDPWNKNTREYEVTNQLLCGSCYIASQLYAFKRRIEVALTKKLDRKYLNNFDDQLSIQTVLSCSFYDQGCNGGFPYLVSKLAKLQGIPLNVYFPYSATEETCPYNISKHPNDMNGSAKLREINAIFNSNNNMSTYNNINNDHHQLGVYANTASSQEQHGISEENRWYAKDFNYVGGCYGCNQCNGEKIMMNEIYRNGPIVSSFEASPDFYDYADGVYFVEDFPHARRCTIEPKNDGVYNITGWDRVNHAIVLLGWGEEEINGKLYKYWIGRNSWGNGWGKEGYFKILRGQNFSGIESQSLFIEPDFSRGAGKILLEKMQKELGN
row,SMILES,% Inhibition @ 10 uM [%]
1,Cc1cccc(C(=O)Nc2ccc(S(=O)(=O)NC3CCCCC3)cc2)c1,-1.95
2,CCC(=O)Nc1c(-c2ccc(C)cc2)nc2cc(C)ccn12,1.29
3,COc1cccc(C2C=C(c3ccc(Br)s3)Nc3ncnn32)c1OC (stereo not shown),-5.19
4,CCOC(=O)N1CC(=O)Nc2ccc(Br)cc2C1c1ccccc1 (stereo not shown),0.0345
5,N=c1n(CCN2CCCCC2)c2ccccc2n1CC(=O)c1cccs1,-5.23
6,Cc1ccccc1CN1C(=O)C(O)(CC(=O)c2ccccc2)c2ccccc21 (stereo not shown),-1.43
7,O=C(c1ccc(COc2ccccc2Cl)o1)N1N=C(C(F)F)CC1(O)C(F)F (stereo not shown),-1.36
8,Cc1cccc(Oc2nc3c(C)cccn3c(=O)c2/C=C(\C#N)C(=O)N2CCOCC2)c1C,3.63
9,Cc1c(CCCN)c2ccccc2n1-c1ccccc1,1.54
10,C1=C(c2nc3ccccc3s2)N2CCCCN=C2S1,-3.25
11,COc1cccc(C(=O)/C=C(/Nc2sc3c(c2C#N)CCC3)C(=O)O)c1,-4.74
12,c1cc(Nc2ncnc3sc4c(c23)CCCC4)ccn1,0.986
13,COc1ccc(NC(=O)c2ccc(Br)cc2)cc1OC,-0.636
14,Cc1noc2ncnc(N3CCc4ccccc4C3)c12,-1.42
15,Cc1c(C(c2cc(Br)ccc2O)c2c(C)n(C)n(-c3ccccc3)c2=O)c(=O)n(-c2ccccc2)n1C,9.64
16,COc1ccc(S(=O)(=O)N(CC(=O)N2CCc3ccccc3C2)c2ccc(Cl)cc2)cc1,-2.28
17,Cc1ccc(-n2nnc(-c3nc(-c4ccc5c(c4)OCO5)no3)c2N)cc1,0.331
18,C=CCNc1nc(-c2sc(NC(=O)CC)nc2C)cs1,-1.93
19,CCOc1ccccc1C1C2=C(O)CCCC2=NC(C)=C1C(=O)OCc1ccccc1 (stereo not shown),7.49
20,CCOC(=O)N1CCC(N(CC)Cc2ccccc2)CC1,-1.81
21,C=C(C)[C@@H]1CC=C(CN2CCN(c3ccc([N+](=O)[O-])cc3)CC2)CC1,4.08
22,Cc1cc2c(cc1C)NC(c1cccs1)C1=C(O)CC(C)(C)CC1=N2 (stereo not shown),-0.413
23,Cc1cc(/C=C2\C(=N)N3N=C(S(C)(=O)=O)SC3=NC2=O)c(C)n1-c1ccccc1F,1.9
24,CC(=O)Nc1nc2n(n1)C(c1ccccc1)C=C(C)N2 (stereo not shown),-1.07
25,Cc1ccc(N2C(=O)C(Cl)=C(N3CCCCC3)C2=O)cc1,-0.941

row,SMILES,% Inhibition @ 10 uM [%]
1,O=C(CN1C(=O)c2cccc3cccc1c23)NCc1ccccc1Cl,-4.05
2,CC/N=c1\c(NC(=O)c2ccc3c(c2)OCO3)c(O)oc2ccccc12,-5.06
3,COc1ccc(OCc2nn3c(-c4ccc(C)cc4)nnc3s2)cc1,2.89
4,O=[N+]([O-])c1ccc2[nH]c(CN3CCCCC3)c(-c3ccccc3)c2c1,3.47
5,CN1CCN(C(=O)/C(=C/c2cccnc2)NC(=O)c2cccc(Br)c2)CC1,2.08
6,Cc1c(CN2CCN(c3ccc(F)cc3)CC2)c(=O)n(-c2ccccc2)n1C,-1.21
7,COc1cc2nc(-n3nc(C)cc3C)n3nc(-c4cccnc4)nc3c2cc1OC,-1.01
8,CCc1ccc(C2C(C#N)=C(N)N(c3ccc(Br)cn3)C3=C2C(=O)CCC3)cc1 (stereo not shown),-5.36
9,C=C(C)CN(CC)Cc1cccc(O)c1,-6
10,O=c1c2ccccc2nc(CN2CCCCCC2)n1-c1ccc(F)cc1,6.65
11,O=C(NCc1cccc(Cl)c1)c1cnc2ccccn2c1=O,-1.66
12,CCOc1cc2c(cc1OCC)C(c1cc(Cl)ccc1O)NCC2 (stereo not shown),-1.38
13,O=C(NCc1cccnc1)c1cc(-c2ccccc2O)on1,2.4
14,Cc1cccc(S(=O)Cc2ccc(C(=O)NC(C)C)o2)c1 (stereo not shown),1.22
15,CCOCCCNC(=O)CS(=O)Cc1nc(-c2ccc(Cl)cc2)oc1C (stereo not shown),2.37
16,CCN(CC)CC#CC(CO)NCc1ccccc1 (stereo not shown),1.7
17,Cc1ccc(S(=O)(=O)/N=C2\C=CC(=O)C(Cl)=C2)c(C)c1,24.5
18,CC(C)(C)C(C)(O)C#CCN1CCCCC1 (stereo not shown),3.03
19,CCCCCCCCCCCCC(=O)CCCC(=O)NCCCCCCCC,-2.77
20,CSC1=NC2(CCCCC2)CC12C=CC(=O)C=C2,1.37
21,CCN(CC)CCNC(=O)CSc1nc2nc(C)c(Cc3c(F)cccc3Cl)c(C)n2n1,2.83
22,Cc1cccc(C)c1NC(=O)C1(NC(=O)c2ccc(Cl)cc2Cl)CCCC1,4.44
23,COC(=O)c1sc(NC(=O)CCS(=O)(=O)c2ccccc2)c(C(=O)OC)c1C,-3.41
24,Cc1nc2nc(CSc3ccc(Cl)cc3)cc(O)n2n1,3.54
25,COc1cc(C2c3c(-c4ccccc4O)n[nH]c3C(=O)N2Cc2ccco2)cc(Br)c1O (stereo not shown),-1.35

row,SMILES,% Inhibition @ 10 uM [%]
1,Cc1c(CC(=O)N2CCOCC2)c(=O)oc2cc(O)ccc12,-4.39
2,Cn1cc(C2N3CC4(C)CN2CC(C)(C3)C4)c2ccccc21 (stereo not shown),0.415
3,Cc1ccc(NS(=O)(=O)c2ccc(NC(=O)CCC(=O)O)cc2)c(C)c1,1.86
4,CCOc1ccc(-c2cc(C(=O)NCc3cccnc3)c3cc(C)ccc3n2)cc1,0.389
5,c1ccc(-c2nn[nH]n2)nc1,-0.0709
6,Cc1[nH]c(SCC(=O)Nc2nc(-c3ccccc3)cs2)nc1Cc1ccc(O)cc1,-0.92
7,COc1ccc(-c2nnc(-c3sc4ccccc4c3Cl)o2)cc1,-1.17
8,CCC(=O)c1cc(Cl)ccc1NC(=O)c1ccc(Br)cc1,-0.736
9,CNC(C)Cc1ccccc1Sc1ccc(O)cc1 (stereo not shown),-21.2
10,COc1ccc(-c2cc(C(=O)Nc3cccc(C)n3)c3ccccc3n2)c(OC)c1,3.72
11,CCCCCn1c(NCc2ccccc2)nc2c1c(=O)[nH]c(=O)n2C,4.95
12,C=C(C)CN(CC)Cc1ccc(-c2cccc([N+](=O)[O-])c2)o1,-2.21
13,Cc1ccccc1OCC(=O)Nc1ccc(S(=O)(=O)Nc2cccc3ccccc23)cc1,6.95
14,CC(=O)c1ccc(NC(=O)c2c(C(=O)O)cccc2[N+](=O)[O-])cc1,-7.32
15,CCCCC12CN3CC(C)(CN(C1)C3c1ccccc1O)C2=O (stereo not shown),-1.71
16,c1ccc(CN2CN(Cc3ccccc3)c3nc4ccccc4n3C2)cc1,2.31
17,CCOc1cccc2cc(-c3nc4cc(C)ccc4[nH]3)c(=O)oc12,-5.62
18,CCN(CC)C(=O)CN(C1CCCCC1)S(=O)(=O)c1ccc(C)cc1,3.87
19,O=C(O)CCCCCNS(=O)(=O)c1ccc(Br)c(C(=O)O)c1,4.35
20,CCOC(=O)c1c(C)[nH]c(C)c1S(=O)(=O)N(Cc1ccccc1Cl)C1CCN(C)CC1,3.74
21,Cc1ccc(C(=O)O)cc1S(=O)(=O)N1CCCCCC1,-3.27
22,COCC(C)NC(=O)c1cc(-c2ccc3c(c2)OCO3)on1 (stereo not shown),-6.45
23,Cc1nnn(C23CC4CC(CC(C(=O)N5CCCCCC5)(C4)C2)C3)n1,-0.0709
24,CC(NC(=O)c1ccccc1N)c1ccccc1 (stereo not shown),-3.38
25,CCOC(=O)N1CCN(C(=O)CCn2nc(-c3ccccc3)ccc2=O)CC1,-0.0542

row,SMILES,% Inhibition @ 10 uM [%]
1,CN(C)c1ccc(/C=C/CN2CCN(c3ccc(F)cc3)CC2)cc1,1.74
2,CNS(=O)(=O)c1cn(CC(=O)N2CCn3c2nc2ccccc23)cc1S(=O)(=O)NC,-4.36
3,CCCN(CCC)C(=O)c1ccc(C)nc1,5.52
4,O=C1NC(=O)/C(=C\c2ccc(Br)o2)S1,4.86
5,CC(C(=O)NCC1CCCO1)n1c2ccccc2c2cnn(C)c(=O)c21 (stereo not shown),4.55
6,COc1cccc(C2NC(=O)NC(C)=C2C(=O)Nc2cccc(C)c2C)c1 (stereo not shown),0.812
7,Cc1ccc(S(=O)(=O)NC(CC(=O)O)c2ccccc2Cl)c(C)c1 (stereo not shown),2.62
8,O=C(NCC12CC3CC(CC(C3)C1)C2)c1cc(-c2ccccc2F)no1,-2.07
9,Cc1cc(=O)oc2cc(Cl)c(OCC(=O)c3ccccc3)cc12,-2.87
10,Cc1cc(C)c(S(=O)(=O)N(C)CC(=O)N2CCN(c3ccccc3F)CC2)c(C)c1,1.19
11,c1ccc(CCN2CCC(N3CCC(N4CCCCC4)CC3)CC2)cc1,-0.446
12,CCOc1ccc(NC(=N)Nc2nc(O)c3c(n2)CCCC3)cc1,-6.64
13,Cc1onc(-c2ccccc2)c1C(=O)NCCCn1ccnc1,3.53
14,c1ccc(CN2C3=NCCCN3c3ccccc32)cc1,-0.0505
15,CN(c1ccc(O)cc1)c1cc(Cl)c2nonc2c1[N+](=O)[O-],9.94
16,O=C1C2C3CCC(C3NCc3ccccc3)C2C(=O)N1Cc1ccccc1 (stereo not shown),-3.5
17,CCN(CC)Cn1c(=O)sc2ccccc21,2.46
18,CCCNC(=O)CSc1cn(CC(=O)N(C(C)C)C(C)C)c2ccccc12,-0.544
19,COc1ccc(CN2CC(C)OC(C)C2)cc1Br (stereo not shown),-6.12
20,COc1cccc(CSc2nc3nccnc3c(=O)n2CCC(C)C)c1,3.36
21,N#CCNC(=O)[C@H](Cc1cn(C=O)c2ccccc12)NC(=O)c1ccccc1,4.33
22,O=C(Nc1ccccc1C(=O)O)c1cc(S(=O)(=O)N2CCOCC2)ccc1Cl,-7.27
23,O=S(=O)(c1ccc(Br)cc1)N1N=C(c2cccs2)CC1c1cccs1 (stereo not shown),-2.58
24,CCc1cc2c(cc3c(=O)n(CC(=O)NCCN4CCOCC4)nc(CC)n32)s1,3.29
25,CC(C)Oc1cc(N2CCOCC2)c(OC(C)C)cc1N,-16.5
